SMILES strings stand for the structures. “And” between values parts separate entries of the source, which are not always exact repeats. Equal values may be shown once. The whole screen tested about 48,000 compounds, of which about 1,200 (2.5%) were called active. Roughly 2% stayed inconclusive and do not appear here.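 Rule for the calls: active = activation of at least 60% and not above a set upper limit (about 1 call in 100 departs from these limits); inconclusive = activation of 40% to 60%, or above that upper limit; inactive = activation under 40%.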 The list shows a part of the results.

Sequence of UniProt O75388 (O75388 whole entry, looked up): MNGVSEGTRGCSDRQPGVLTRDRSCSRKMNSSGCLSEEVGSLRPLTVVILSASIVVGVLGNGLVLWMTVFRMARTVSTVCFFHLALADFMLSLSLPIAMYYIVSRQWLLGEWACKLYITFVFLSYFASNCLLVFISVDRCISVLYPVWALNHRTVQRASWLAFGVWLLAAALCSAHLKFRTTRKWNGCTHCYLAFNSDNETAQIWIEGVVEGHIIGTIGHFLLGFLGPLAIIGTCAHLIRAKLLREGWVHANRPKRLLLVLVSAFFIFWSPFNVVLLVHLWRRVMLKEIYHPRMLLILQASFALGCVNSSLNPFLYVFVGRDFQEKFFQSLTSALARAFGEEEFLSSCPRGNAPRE

The assay addresses Probable G-protein coupled receptor 32 (Homo sapiens) (UniProt O75388). In words: qHTS for Agonists of Human Resolvin D1 Receptor DRV1. Note: 0% is about no effect. The conditions noted are these: CHO-K1 GPR32 beta-arrestin PathHunter luminescence, 90 min; at 76.9 µM; hits give high values; zero percent set by DMSO-only wells. A digest of the protocol:
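Using DMSO wells as EC0, agonist-induced signal was taken as chemiluminescence from beta-Gal reconstituted upon beta-arrestin recruitment to GPR32 in CHO-K1 cells after 90 min compound treatment.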
Take `CCN1CCOC(=O)C1CC(=O)Nc1cccc(OC)c1` (stereo not given): the activation was inactive: -7.26%.

In the case of `Cc1onc(-c2ccccc2Cl)c1C(=O)Oc1ccc(Br)cc1`, the activation was inactive: -1.24%. As for `Cn1cc(S(=O)(=O)N2CCCCCC2)cc1C(=O)NCc1ccc(Cl)cc1`, the activation was inactive: 34.2%. The value for `CC1=C(C(=O)Nc2ccccc2)C(c2cccc(O)c2)n2nc(-c3ccccc3Cl)nc2N1` (stereo not given) was inactive: 8.55%; that for `COc1cccc(NC(=O)CN(Cc2ccccc2)S(=O)(=O)c2ccc3nc(C)sc3c2)c1` was inactive: -15.2%.

As for `CSc1ncc(Cl)c(C(=O)Nc2nc3ccc(F)cc3s2)n1`, the activation was inactive: 31.9%. In the case of `COc1ccc(OC)c(-c2nc(C(N)=O)c3c(n2)n(-c2ccc4c(c2)OCO4)c(=O)n3C)c1`, the activation is inactive: -5.64%.

For `Cc1nn(CCCC(=O)NCc2cccc(F)c2)c(=O)c2nn(-c3ccccc3)c(C)c12`, the activation is inactive: -20.5%. `CCN1CCN(C(=O)c2ccc3c(c2)N(Cc2ccccc2)C(=O)c2ccccc2S3=O)CC1` (stereo not given): the activation was inactive: -7.29%. As to `CCOc1ccc(CNCc2c(C(=O)O)c(C)n(Cc3ccc(F)cc3Cl)c2C)cc1`, the activation is inactive: 33.8%.

For `CCCCc1nn2c(=O)cc(COC(=O)c3cccc(NC(=O)c4cccc(C)c4)c3)nc2s1`, the activation was inactive: -17.1%.

Turning to `CCOC(=O)c1c(S(=O)(=O)NCC(=O)Nc2ccc(Cl)c(C(F)(F)F)c2)c(C)n(C)c1C`, the activation was inactive: 3.09%. `Cc1ccc(CN2CCCn3nc(C(=O)NCc4ccccc4Cl)cc3C2=O)cc1`: the activation is inactive: 22.5%. The value for `Cc1ccc(NC(=O)CN(C)S(=O)(=O)c2ccc3c(c2)CCC(=O)N3)c(C)c1` was inactive: 12.4%. The value for `COc1ccccc1C(=O)c1c(N)c(-c2nc(-c3ccccc3)cs2)c2ccccn12` was inactive: -32.4%.

For `CCCCN(CC)C(=O)CCn1c(=O)c2cccn2c2cccnc21`, the activation was inactive: -13.1%.

As for `COc1ccccc1-c1noc(-c2ccc(N(C)Cc3ccccc3)c([N+](=O)[O-])c2)n1`, the activation was inactive: 1.5%. The value for `Cc1ccc(NC(=O)Cn2nc(-c3ccc(F)cc3)c3cnc4ccc(C)cc4c32)cc1` was inactive: 9.56%. With `CCCN1CCN(c2ncc3c(n2)CCN(Cc2ccc(OC)c(OC)c2OC)C3)CC1`, the activation was inactive: -9.58%. The same measure for `CC(=O)c1cccc(N(C(=O)Cn2nnc3ccccc32)C(C(=O)NCc2ccccc2)c2ccc(F)cc2)c1` (stereo not given): inactive: -19.5%; for `CCCCNC(=O)CN1C(=O)CSc2ccc(S(=O)(=O)N3CCC(C)CC3)cc21`: inactive: 9.2%; for `COc1cc(NS(=O)(=O)c2ccc(N)cc2)nc(C)n1`: inactive: 9.18%. The value for `Cc1ccc(Cl)cc1N1CCN(C(=O)c2cccn2-c2nnc(N3CCCCC3)s2)CC1` was inactive: -7.93%; that for `Fc1cccc(Cl)c1CNc1n[nH]c(-c2ccco2)n1` was inactive: 8.13%; that for `CC(C)CCNC(=O)c1ccc(Cn2c(SCC(=O)NC(C)C)nc3ccccc3c2=O)cc1` was inactive: -27.5%. With `COc1cc(Cl)ccc1OC(=O)c1cn(-c2ccccc2OC)c(=O)c2ccccc12`, the activation is inactive: 12.5%. Regarding `CC1C(=O)Nc2ccc(S(=O)(=O)Nc3ccccc3Br)cc2NC1=O` (stereo not given), the activation is inactive: 0.581%. The same measure for `Cc1ccc2nc(Cl)c3cc(C(=O)NCCCN4CCC(C)CC4)sc3c2c1`: inactive: -0.0005%; for `Cc1c(-c2ccccc2)c(=O)oc2c(CN3CCN(C)CC3)c(O)ccc12`: inactive: 12.7%. The same measure for `Cc1cc(NC(=O)c2ccc(-c3ccc(Br)cc3)o2)cc(-c2nc3ncccc3o2)c1O`: inactive: 26.7%. The same measure for `COc1ccc(N2CC(NC(=O)c3ccc4c(c3)OCO4)CC2=O)cc1OC` (stereo not given): inactive: 19.9%; for `CCc1ccc(-n2c(SCC(=O)NC(C)CC)nc3n[nH]c(C)c3c2=N)cc1` (stereo not given): inactive: -16.2%; for `COc1ccc2c(c1)c1c(c(=O)n(-c3ccccc3)c(=O)n1CC(=O)Nc1ccc(F)cc1)n2C`: inactive: 15.5%. Regarding `Cc1ccc(C)c(S(=O)(=O)c2nnn3c2nc(NCc2cccs2)c2sccc23)c1`, the activation is inactive: -18%. The value for `N#C/C(=C\c1ccc(O)c(O)c1)C(=O)c1ccc(O)c(O)c1` was inactive: -26.6%. The value for `COc1ccc(NC(=O)Cc2csc(COc3cccc(C)c3)n2)cc1OC` was inactive: 42.9%. For `CCc1cc2c(cc3c(=O)n(CC(=O)N4CCCCC4)nc(CC)n32)s1`, the activation was inactive: 1.61%. The same measure for `COc1ccc(CNC(=O)Cn2nnc(-c3ccccc3F)n2)cc1`: inactive: -0.303%; for `Cc1ccc(-c2nc(S(=O)(=O)c3ccc(Cl)cc3)c(N3CCCCC3)o2)cc1`: inactive: -5.36%; for `CCCCN(C)CC(O)Cn1cc(/C=C/C(=O)c2ccc(OC)c(OC)c2)c2ccccc21` (stereo not given): inactive: 38.2%. Take `CCCn1ccc2c(OCC(=O)NCc3ccc(F)cc3)cccc2c1=O`: the activation was active: 76.6%. The same measure for `COc1ccc(Cl)cc1C(=O)Nc1ccc2oc(-c3ccc(C(C)(C)C)cc3)nc2c1`: inactive: 24.1%; for `CC(C)(C)C(=O)NCCCC(=O)O`: inactive: 9.72%; for `CCCSC1=NC2(CCN(C(=O)NC3CCCCC3)CC2)N=C1c1ccccc1`: inactive: -9.57%. The value for `CCCSc1ncc(Cl)c(C(=O)Nc2sc3c(c2C(=O)NCC)CCCC3)n1` was inactive: -11.8%; that for `NC12CC3CC(CC(C3)C1)C2` was inactive: -4.06% and inactive: -0.386%; that for `CN1CCN(C2=Nc3cc(Cl)ccc3Nc3ccccc32)CC1` was inactive: 15.1% and inactive: -9.67%. As for `Cc1ccc(C)c(NS(=O)(=O)c2ccc3c(c2)n(C)c(=O)n3C)c1`, the activation was inactive: 7.13%.

As to `COc1ccc(-c2noc(Cn3c(=O)c4ccccc4n(CC(=O)Nc4cccc(C(F)(F)F)c4)c3=O)n2)cc1`, the activation was inactive: -8.81%. The same measure for `CC(C)NC(=O)N1CCC(N2CCN(Cc3ccc(F)cc3)C(=O)C2=O)CC1`: inactive: -9.75%; for `CCOc1ccc(N(CC)S(=O)(=O)N2CCCC(C(=O)NCc3ccc(Cl)cc3)C2)cc1` (stereo not given): inactive: -28.3%. For `O=C(Cc1ccc(F)cc1)NCCc1csc(-c2cccc(F)c2)n1`, the activation was active: 103%. The same measure for `CCn1c(SCC(=O)N2CCC(C)CC2)nnc1-c1ccccc1O`: inactive: 1.42%. The same measure for `O=S(=O)(Nc1cccc(-c2ccc(N3CCCCCC3)nn2)c1)c1ccccc1`: inactive: -8.97%. The value for `Cc1ccccc1-c1nc(CS(=O)(=O)CC(=O)Nc2cccc(C(F)(F)F)c2)c(C)o1` was inactive: 35.8%; that for `Cc1ccc(S(=O)(=O)NCCc2sc3nc(-c4ccccc4)nn3c2C)cc1C` was inactive: -14.3%.

For the compound `COc1ccc2c(c1)c1c(c(=O)n(Cc3ccccc3)c(=O)n1CC(=O)Nc1c(C)cccc1C)n2C`, the activation is inactive: 1.57%. Regarding `O=C(c1cccc(Cl)c1)N(Cc1ccco1)Cc1ccccc1Cl`, the activation is inactive: -32.6%. In the case of `CCc1nc2onc(C)c2c(=O)n1CC(=O)O`, the activation is inactive: 5.86%. The value for `Cc1oc(-c2cccc(Br)c2)nc1Cn1c(=O)cc(-c2ccccc2)c2c(C)nn(C)c21` was inactive: -3.94%. On to `CCCOc1ccc(Nc2cc(C)nc(C)n2)cc1`, for which the activation was inactive: -24.6%.

In the case of `O=C(Cn1c(=O)n(-c2ccc(F)cc2)c(=O)c2sc3ccccc3c21)NC1CCCCC1`, the activation is inactive: -0.922%. The same measure for `CCOC(=O)c1ccc2c(c1)N(Cc1cccc(C(F)(F)F)c1)C(=O)c1ccccc1S2(=O)=O`: inactive: -1.58%; for `COc1ccccc1NC(=O)C1=C(C)Nc2nc3ccccc3n2C1c1cccc(Br)c1` (stereo not given): inactive: -22.1%; for `COc1ccc(N2CCN(Cc3cc(=O)oc4ccc(OC)cc34)CC2)cc1`: inactive: -16.5%.

Take `CCc1ccccc1Nc1cc(C(=O)NCCc2ccccc2)c2ccccc2n1`: the activation is inactive: -15.1%. `Cc1ccc(CNC(=O)CCC(=O)N2Cc3ccccc3Oc3ncccc32)cc1`: the activation was inactive: -14.2%. The same measure for `COc1ccc(Cn2c(=O)[nH]c3cc(C(=O)N4CCN(c5ccccc5)CC4)ccc3c2=O)cc1`: inactive: -0.0658%; for `O=C(NCC(c1cccnc1)N1CCOCC1)C(=O)Nc1ccc(F)cc1` (stereo not given): inactive: -0.662%. The value for `Cn1c(SCc2cccc(F)c2)nc2c([nH]c3ccccc32)c1=O` was inactive: -6.38%; that for `CCCn1ccc2c(OCC(=O)Nc3ccccc3OCC)cccc2c1=O` was inactive: 39.7%; that for `COc1ccc(OC)c(CCNc2nccn(-c3ccc(C)c(C)c3)c2=O)c1` was inactive: 38.1%. As for `COc1ccc(CCNC(=O)C2CCN(c3nc4ccccc4nc3C(F)(F)F)CC2)cc1OC`, the activation is inactive: -13%. The same measure for `O=C(Nc1ccc2nc(SCC(=O)N3CCCc4ccccc43)sc2c1)c1cccc(Cl)c1`: inactive: -15%; for `Cc1ccc(NC(=O)CN2C(=O)CSc3ccc(S(=O)(=O)N4CCCC4)cc32)c(C)c1`: inactive: -19.7%; for `COc1ccc(C(=O)Oc2c(Sc3ccccc3)c(C)nn2-c2ccccc2)cc1OC`: inactive: 20.3%.

Take `COCCCNS(=O)(=O)c1ccc(N2CCCCS2(=O)=O)cc1`: the activation is inactive: 6.38%. The value for `CCOC(=O)c1scc(-c2ccc(C)cc2)c1S(=O)(=O)Nc1cccc(CC)c1` was inactive: -20%; that for `COc1ccc(-n2c(SCC(=O)Nc3nnc(C)s3)nc3c([nH]c4ccccc43)c2=O)cc1` was inactive: -18.8%; that for `Cc1onc(-c2ccc(Br)cc2)c1C(=O)Nc1ccc(Br)cc1F` was inactive: -20.5%. For `COc1cccc(CNc2ncc(-c3ccc(Br)cc3)n2C)c1`, the activation was inactive: -59.6%. The value for `COc1cccc2sc(N3CCN(C(=O)CS(=O)(=O)c4ccc(Cl)cc4)CC3)nc12` was inactive: 12.8%; that for `CC(C)N(C(=O)c1cc2c(Cl)nc3ccccc3c2s1)C1CCCCC1` was inactive: 4.35%. With `CCOC(=O)c1ccccc1Nc1cc(C)nc2nc(-c3ccco3)nn12`, the activation is inactive: -9.7%. The same measure for `Cc1cccc(C(=O)Nc2cc3c(cc2N2CCOCC2)n(C)c(=O)n3C)c1`: inactive: -27.4%.

(Values after PubChem BioAssay AID1346428 (National Center for Advancing Translational Sciences (NCATS), 2018).)
